Experimental data from the supplement of paper PMC3334620.
The full ranking holds about 33,000 sequences; the median of “E-score (-0.5 to 0.5)” is about -0.041, and the highest 2% start at about 0.37. Some of the results follow.

Each sequence was assayed against T1, Ecm22 (UniProt Q05958) (assay: PBM E-score (8-mer binding enrichment) (E-score (-0.5 to 0.5)); higher = stronger / more preferred TF binding; most listed sequences are background and not binding sites). Details: protein concentration: 200 nM; construct: GST-full length.
T1 sequence: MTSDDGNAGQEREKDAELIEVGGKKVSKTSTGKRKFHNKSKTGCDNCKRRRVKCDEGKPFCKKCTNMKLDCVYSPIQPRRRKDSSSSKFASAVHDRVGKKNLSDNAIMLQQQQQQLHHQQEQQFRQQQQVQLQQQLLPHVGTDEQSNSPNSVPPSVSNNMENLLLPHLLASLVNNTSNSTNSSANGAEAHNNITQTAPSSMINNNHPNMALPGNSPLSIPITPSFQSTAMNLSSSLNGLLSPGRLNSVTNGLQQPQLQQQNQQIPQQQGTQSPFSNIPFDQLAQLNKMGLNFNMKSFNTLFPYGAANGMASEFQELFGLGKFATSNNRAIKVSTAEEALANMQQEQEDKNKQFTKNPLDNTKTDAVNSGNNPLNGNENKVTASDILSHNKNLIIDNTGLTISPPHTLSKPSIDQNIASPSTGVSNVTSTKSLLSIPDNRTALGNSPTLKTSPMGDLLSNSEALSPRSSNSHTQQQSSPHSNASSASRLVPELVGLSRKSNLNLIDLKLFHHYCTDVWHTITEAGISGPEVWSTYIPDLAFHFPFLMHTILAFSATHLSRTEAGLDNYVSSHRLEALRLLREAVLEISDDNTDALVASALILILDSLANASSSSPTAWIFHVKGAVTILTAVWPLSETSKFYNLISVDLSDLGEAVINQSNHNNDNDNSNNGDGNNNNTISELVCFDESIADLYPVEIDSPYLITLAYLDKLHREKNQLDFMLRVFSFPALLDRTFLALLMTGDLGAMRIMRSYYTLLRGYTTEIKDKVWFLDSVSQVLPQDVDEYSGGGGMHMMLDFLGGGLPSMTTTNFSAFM
Experimental: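 Universal 'all 10-mer' protein binding microarrays (Agilent AMADID 015681) probed with GST-tagged S. cerevisiae TFs (full-length or DBD) made by in vitro transcription/translation (PURExpress), about 100-200 nM. Bound TF was detected with fluorescent anti-GST. Each ungapped 8-mer (which stands for itself and its reverse complement) is scored by the PBM enrichment score (E-score), a modified Wilcoxon-Mann-Whitney statistic from -0.5 to +0.5, computed with the Universal PBM Analysis Suite. Scale: above 0.35 generally sequence-specific binding.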

Sequence	PBM E-score
CACCCGTG	-0.0774
CGTGGTTC	0.0382
AATTCCCC	-0.16
GATGACTA	-0.123
ATACTAGC	0.144
CAATGTAC	0.00988
GGATCAAC	-0.00834
GATTTCCC	0.0284
CGGCTAAC	0.0416
AGCGGACT	-0.175
AACGTTAA	0.184
ATTAGGAA	-0.0155
ATCCGGAC	-0.158
GATAGAAC	0.059
ATTGCTGA	-0.0619
AGATCTTC	-0.0142
CCCGGGGA	-0.286
ATAAAAAT	-0.168
CTGTAATA	0.139
ATTGGTTG	-0.164
AAGAACGC	0.118
CTCGAGCC	-0.0532
GAATGTAC	0.133
ATTTACAC	-0.162
CCCCATTA	-0.249

Sequence	PBM E-score
CCGGCCAG	-0.176
AACGTCCT	0.0799
AATTGCGA	0.134
CGGTAGAC	0.0507
TAACACAA	0.0687
AGACAAGA	-0.0237
ACAGGTCC	-0.142
AGCTTGGA	-0.13
AATATCAA	-0.0357
GAAGATTC	-0.00872
AAGAGTTC	0.00406
GATCGAAA	0.182
GAAAGTTC	-0.187
ATAAGGTA	-0.0216
TCCTTCGA	-0.104
GTACTCTA	-0.0371
GCTGCCGA	-0.0547
CCGCCTAA	-0.0442
AGTAGGTA	-0.00972
ACAACGCT	-0.067
GAACACTC	0.185
CTTTCGCC	-0.0432
CTCCGCTA	-0.123
AAGTCCGC	-0.026
GCTACCGA	0.0522

Sequence	PBM E-score
CGCCTGCC	-0.188
AGGTCCGG	0.0409
ACAGAACG	0.239
ACGCTGCA	-0.0508
CCGAGAAC	0.204
AGGATCCA	-0.149
GCTCTCAC	-0.367
CCTCACCC	-0.0442
AAGCTCAT	-0.0639
ATATCGTC	0.0456
GCAAATCA	0.0219
AACGCTAC	0.0319
AACCTCTT	-0.0421
CAAAACTA	-0.114
AATCCTCA	-0.147
AAGCTGCC	-0.241
CGCTATCA	-0.00413
CAACCGTA	0.271
AAATAGCG	-0.0547
GGATCGAA	0.251
GACGCACC	-0.0514
AGGCCTAA	-0.124
ACACCTTG	-0.0867
AACTCCCA	-0.108
CCGTTTTC	0.102

Sequence	PBM E-score
CCCCTGTC	-0.162
ATAATATG	0.187
ACCTTGTA	-0.0248
CACGAAAA	0.153
GTCGGTGA	0.0362
GATCCCTA	-0.0622
CTGCGCCC	-0.369
ACTTGATA	-0.0792
CGATTGCG	0.026
CCTTTACC	-0.14
AGTGGTGA	-0.115
AGCCATAG	-0.207
ACAAAACA	-0.00876
CCGGACGC	0.0555
GTTATAAA	-0.0292
CTCACAGA	-0.151
ATGTAGTG	-0.21
AGTTGCAG	-0.189
AAGACTTG	-0.0262
GTTAGTAA	0.0296
ATGAAAGA	0.0262
CATGCCAA	-0.0285
TTACTCAA	-0.0047
AACTCCCG	0.237
ACTCGGCC	-0.0187

Sequence	PBM E-score
CTTCCCCC	-0.308
ATGCATAC	0.154
CGACTCCG	0.103
TGGGCAAA	-0.166
ACGCGTTC	0.18
AAATAATC	-0.0438
CTAAAATA	-0.0259
AAAGCGCA	-0.0875
GAGCCATC	-0.0807
CCCTCCCG	-0.137
CCACGAAA	-0.0672
CCGGGCCA	-0.282
GTAAAGCA	0.0968
ATAAATAC	0.206
GCGGGCGA	-0.0412
CGAAACGA	0.424
AAGTTTTG	-0.00804
CAGTCGGA	-0.067
ATAGATGC	0.0571
AGATCTAC	0.113
GACCCGTA	0.24
CTACTAAA	-0.0909
CTTGGTTA	-0.106
CTGAGTGC	-0.0819
CGGAGATC	0.088

Sequence	PBM E-score
CAACTCTA	-0.209
TATGATGA	0.00697
GTCAATAA	0.0675
ACCTTATG	-0.146
CGCTACAA	0.0321
AAGTAATG	-0.068
AGTTCGCC	0.0208
ATGTGGCA	-0.097
AATGCTAG	-0.149
CGGACGGC	0.0309
AAGCGATA	0.168
AGCCTGAT	-0.168
GGCGTCGA	-0.0169
ATCGTCCA	-0.241
ATACGCAC	0.292
TGTGGGAA	-0.114
CCGACCTC	0.00198
AATCATTG	-0.13
CTCAGACA	-0.152
ACGCCGTC	-0.0565
ACTAATGC	0.0211
AAGAACTG	-0.0848
CTCTTCTA	-0.0431
ACGTGCGG	-0.046
ATATCCTA	-0.186

Sequence	PBM E-score
CCCCACGG	-0.132
GGATTTAC	0.0417
GAAGGTAA	0.0431
CTCAGATC	-0.108
GAATCTCA	-0.00523
CCACGACC	0.00845
GCTACATA	-0.0814
AGCTACTC	-0.0704
AGCTCGGC	0.164
CACATTAC	0.114
AAAATGGG	-0.234
CGGTCATC	0.0497
AGCCACTA	-0.0252
GAGAAGGA	-0.105
CACTATAG	-0.118
CTGGCGTC	0.0205
CACCCGAC	0.0849
CCTTTTCA	-0.111
AAGCGCCA	-0.145
ATTCCCTA	-0.152
AGTCCAAA	-0.108
ATTGTTGC	-0.109
